According to PMC10726135:
Some of the results follow. At the low end of the ranking the order means little. The protein was read in a cell extract, so binding may be indirect.

biological target: T1, HNF4alpha2 (COS-7 nuclear extract) (UniProt P41235); test: protein-binding microarray; settings: COS-7 nuclear extract on double-stranded Agilent 4x180k PBM; binding buffer, salt, pH and temperature not given; high values mean tight binding; double strand, one strand shown; sequences stand for … in …GCCTAGGGAGATTAGAGTATCGGTCGA
T1 sequence: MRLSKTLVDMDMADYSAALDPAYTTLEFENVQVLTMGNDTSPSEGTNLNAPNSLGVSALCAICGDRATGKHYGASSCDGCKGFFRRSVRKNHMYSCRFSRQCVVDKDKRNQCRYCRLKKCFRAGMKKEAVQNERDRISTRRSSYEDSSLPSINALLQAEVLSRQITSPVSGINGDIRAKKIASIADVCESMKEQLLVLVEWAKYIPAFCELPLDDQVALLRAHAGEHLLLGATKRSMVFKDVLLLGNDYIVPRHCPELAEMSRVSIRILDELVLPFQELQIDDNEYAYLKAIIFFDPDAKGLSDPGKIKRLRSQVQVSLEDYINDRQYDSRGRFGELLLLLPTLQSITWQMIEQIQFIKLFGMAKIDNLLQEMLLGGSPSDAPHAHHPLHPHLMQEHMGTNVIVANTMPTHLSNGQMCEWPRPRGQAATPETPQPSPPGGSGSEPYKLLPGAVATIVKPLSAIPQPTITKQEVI

Sequence | binding signal (log2 normalized intensity)
CTTATCAGGCTCATTCTAACCCAAATGCAA | 2.07
TTCCAGAGCCTTCAAAGGAAAGCAGGTGTT | 0.55
ACTGTCAGCAGGGGGATCCACTTCCTATCC | -1.01
TCATGGAGGACTTTGGCCTTTTGTGAGATA | 5.04
CATCCCTCTCTTGCTGGGCCCCCAGATTGA | 2.42
TCGAGATGGCTAATCAGTATTGAGGCCGGA | -0.426
TTTGCAAGGTTTGTTCTTATCATGCTGTCT | 1.98
CACCCTTCCCTGAGTTTCCATTAACTGAAC | 0.899
CAGAATGACTTTCAGAAAGTCCTTGGAAAC | 0.96
CTCCGTCGTGGCCTGGCGTGGATTCCGAGC | -0.819
TTTGCCATAGATCCCACCATTCCCAGTTGT | 2.1
CTTTAACAAGGTGTGTTTGAGCAGGGGTGA | 1.27
ATGCATTTCCCTAGATCACTGTGTATTTGT | 2.32
TCCAGCCTGGGTGACAGAGTGAGACTCTAT | -0.711
TACTGACCTTTCTCCCTTTTCACAGGAGAG | 1.49
GGTAGTCGCCCTCCGTCGTGGCCTGGCGTG | -1.04
AAATTCTGCGGCGGAAGGACACAGATTCAG | -1.18
ATTCATTCAGCAAATATTGAATGTGTTACA | 1.29
CCCCTTCCCACCTGCTGTCCAACCTCCTCC | 3.53
CTCATTACTAATCCTCTTCTGTCCTCCTGT | 1.56
CATCTCAGCTGTTATCTCTTTTGTGATAGA | 1.3
GGCTCCGCTGCTGCAGAGCAAAGCTGATAA | -1.2
GGGCGGGGGTGACCAGATTAATTACCCACA | -1.15
AGACATTCCAAACATGTTTCGAACGGTTGC | 0.627

Sequence | binding signal (log2 normalized intensity)
GCCAGACTGGTTTTTCTTGGGTGTATGGGT | 2.02
TTGCTATGTCCCTGATGACATAATTTACGG | 0.169
CCAGATAAGAGCTATCAATGACCCATGTTT | 1.28
CAGGAGCCCTAGGAATCCTGACCAGGGGCC | -1.16
AAATACTTGTTATATTGGATAGTGCCTTTT | 1.6
TTCCCGGCAGCCCGCGCGTGGCCCAGCATG | -1.13
CAGATCCCAAAGGCATGAATAGAATGCAAC | -1.04
CAATTTCTTAGTAAACACTGCCACCGTGTG | -1.16
TCTACCATAGACCCTGTTGGTTTCTGGGAT | 1.07
ACCTTTGGGACATTCCCCAGGCTGCCCTGA | 1.15
GCAACCCCGTTTACTTTTGTACACACAGCA | -0.303
TCTGACCCTTGACCAAGCAGCTGTTTGACC | 3.24
GGAGTTAACTAACAAAAGCAGAGGAGTGGC | -1.21
CCCAGTACAAAGTTCACTTTCTTGTTTACT | 4.59
TCCCTGACAGACCCCTCCTACGTACCCTAG | 2.21
GGTTACAGGGTTCAACACGTGGTATTTTTC | 1.91
TTTAGAGCACAGTAATGTGATTTAATTCTG | 0.168
CTCCAGGACCTTGCCCTTTAGTTATCTCTT | 2.63
TCCAAAGGCCATCTGCTGGAGAATCCTCTC | -1.23
GTACCTCCCGAAAGTGACCCTCTGCCCCCT | 6.3
CACTGCTCTAGGCATTGGAGATATGATAGC | -1.03
CCAGTTAGACATAGGTTATAAACTTGTTTG | 1.16
ATGACTACTTTAAAAGAAGATGCCTTTCAA | -1.06
AGGAGATAATGGGTGTAAGATACCTATGCC | -1.2

Sequence | binding signal (log2 normalized intensity)
CACTACAAGCTTTGAAGGCAAGATAAAATA | -1.17
AAGCTTAGGAATTCCAAGAAGGCAGACTCA | -1.17
GAGTTGGGGACAAAGTTCAAGGTCCAGCCT | 5.28
GATTTGAAGGAGCAGAATAAGGCCCAGTGT | -1.16
GTCTCTCAGGCACAGCTCGACCTTTGACCT | 10.1
TTTGACATCCAAAGTTTCCTCTCCTGCCCT | 2.16
GCTTTGCGGAGAGGGTTCTCACTCCTCTAT | 0.0844
AGACAGTGTGGCAGAAAACGCAATTGCCCT | 1.47
TGACCACTCTGCCAGGTGACCACTCTGTAA | -0.858
ATAAGAAACCCAAGATTTGGTGTTACCTTT | 1.43
CTGCCCTTCCACCCACTTTATCTTCTATAG | 1.8
CTCTGAATAACTGCTTTGTGGCATCAGGGT | 0.92
TCCCCAGACAGCCACTGTTTGACGACTGTC | -1.04
AACGGGTTAGACGCACGGCAGAGCACCTGG | -1.09
CCGTCAATCTGCAGCCGCCGGAGAATTAAA | -0.683
CTTTCCTGCAGAGGGACTGACTCCCTTTTC | -0.238
TCTGCTACTTAAGATAGAGGCTTTAGCAAT | -0.878
TGCAGGTGGGAGAGGGGGACTGCAAGTACG | -1.16
CATATAAGGAACAAAGTCAGGTGCCAAAGG | 1.17
AAAGTGACACATTCCAGGCGAGTTTGGGCT | -1.13
TGTGCAGACCTTCTCTGGCCCTCACTTACA | -1.1
AAATTTCAGATATCTGAATGTACCTTTGAA | 2.41
ATATCAGTGGCACTCTCTGGGTTAAACGTG | 1.61
GTCCTTTCAGGACACCTTCAGGGCTGAGCC | 0.581

Sequence | binding signal (log2 normalized intensity)
CTGCCTATCTCCTATGAGCCAAACACCATG | -1.1
CCAGAATCCTAACTGCAAGGAAATCTGGGA | -1.24
GACTTTGGCTTTTCCAAAGGATCCCAGGAA | -0.95
GCTGTCAACGGAGGTGGGAAAGACTTAGGA | -1.13
TTAGATAACATCTTTTCTCAGTTAACTGGA | 0.415
GAATGCTTTGAGCCAGAATCTGTCAGCTGC | -1.1
GGATATTGGCAACGCCTCAGAAGCAAAGTC | -1.24
GGGGAAAGTGCAAGGGCCCAGAGGAAGGAA | -1.17
AGTTGAGAATTCCAGAGATGCCAGGAGAGC | -1.11
TAGTTATTCAGTACAGACTTGTGTAATAAC | 0.916
AAAAAGCTATCATTTGTCACTTGGACTATT | 2.8
TTGGTGAGTCTTAGGGAGGGGCCAGGACAA | -0.527
AGCCTTACCAGTAGGACCACATTCAATCAT | -1.09
CTGTGGACTCTGAGCCTCCTCCCTCTCTCT | 1.7
ATAAGGCTAAGTGGAGGATTTGGGTGATGT | 1.39
CCCATCGACCTTTGCTCCCGACTCTGAGGC | 5.07
ATACCCATTCACATGACCTTTGTCCGTTCC | 7.01
AATATCCACACAAACCCAGTTTGCATTTTC | -0.782
GTCTCCCTACCTCTGCACAGCTCCAGACAT | -0.855
CTGGGTTTCTTCCCTAATGGACATCTCTAG | 0.206
AAAATCAGTCTCAGTGGGCTAAACATCAAG | -0.841
